# Some of the results follow.
# Columns and labels:
# Test in all cases: glycan array binding signal (z-score within array); higher = stronger binding
# Conditions in all cases: glycan notation: IUPAC condensed, linker removed
# [1] = target: 3dGal(b1-3)[Fuc(a1-4)]Glc
# Method in brief: (§1)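 Arrays were curated from the Consortium for Functional Glycomics database, 3228 in total, and kept only where the protein sequence was available. Binding is expressed as a within-array Z-score. This score was averaged across arrays of the same protein sequence at different concentrations or buffers and across linkers, and negative values can be read as non-binding.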
# [2] = target: 3dGal(b1-4)Glc
# Method in brief: as §1
# [3] = target: Ara(a1-5)Ara(a1-5)Ara(a1-5)Ara(a1-5)Ara(a1-5)Ara
# Method in brief: as §1
# [4] = target: Ara(a1-5)Ara(a1-5)Ara(a1-5)Ara(a1-5)Ara(a1-5)Ara(a1-5)Ara
# Method in brief: as §1
# [5] = target: Fuc(a1-2)Gal
# Method in brief: as §1
# [6] = target: Fuc(a1-2)Gal(b1-3)GlcNAc(b1-3)Gal(b1-4)Glc
# Method in brief: as §1
# [7] = target: Fuc(a1-2)Gal(b1-3)GlcNAc(b1-3)[Fuc(a1-3)[Gal(b1-4)]GlcNAc(b1-6)]Gal(b1-4)Glc
# Method in brief: as §1
# [8] = target: Fuc(a1-2)Gal(b1-3)[Fuc(a1-4)]GlcNAc(b1-3)Gal(b1-4)Glc
# Method in brief: as §1
# [9] = target: Fuc(a1-2)Gal(b1-3)[Fuc(a1-4)]GlcNAc(b1-3)Gal(b1-4)[Fuc(a1-3)]GlcNAc(b1-3)Gal(b1-4)Glc
# Method in brief: as §1
# [10] = target: Fuc(a1-2)Gal(b1-3)[Fuc(a1-4)]GlcNAc(b1-3)[Fuc(a1-2)]Gal(b1-4)Glc
# Method in brief: as §1
# [11] = target: Fuc(a1-2)Gal(b1-3)[Fuc(a1-4)]GlcNAc(b1-3)[Fuc(a1-3)[Gal(b1-4)]GlcNAc(b1-6)]Gal(b1-4)Glc
# Method in brief: as §1
# [12] = target: Fuc(a1-2)Gal(b1-3)[Fuc(a1-4)]GlcNAc(b1-3)[Gal(b1-4)GlcNAc(b1-6)]Gal(b1-4)Glc
# Method in brief: as §1
# [13] = target: Fuc(a1-2)Gal(b1-4)[Fuc(a1-3)]GlcNAc(b1-3)Gal(b1-4)Glc
# Method in brief: as §1
# [14] = target: Fuc(a1-2)Gal(b1-4)[Fuc(a1-3)]GlcNAc(b1-3)[Fuc(a1-2)]Gal(b1-4)Glc
# Method in brief: as §1
# [15] = target: Fuc(a1-2)[Gal(a1-3)]Gal
# Method in brief: as §1
# [16] = target: Fuc(a1-2)[Gal(a1-3)]Gal(b1-4)GlcNAc(b1-3)Gal(b1-4)Glc
# Method in brief: as §1
# [17] = target: Fuc(a1-2)[GalNAc(a1-3)]Gal
# Method in brief: as §1
# [18] = target: Fuc(a1-2)[GalNAc(a1-3)]Gal(b1-3)GlcNAc(b1-3)Gal(b1-4)Glc
# Method in brief: as §1
# [19] = target: Fuc(a1-2)[GalNAc(a1-3)]Gal(b1-3)[Fuc(a1-4)]GlcNAc(b1-3)Gal(b1-4)Glc
# Method in brief: as §1
# [20] = target: Fuc(a1-2)[Neu5Ac(bond)]Gal(b1-3)GlcNAc(b1-3)Gal(b1-4)Glc
# Method in brief: as §1
# [21] = target: Fuc(a1-3)GlcNAc6S
# Method in brief: as §1
# [22] = target: Fuc(a1-3)[Gal(b1-4)]Glc
# Method in brief: as §1
# [23] = target: Fuc(a1-3)[Gal(b1-4)]GlcNAc
# Method in brief: as §1
# [24] = target: Fuc(a1-3)[Gal(b1-4)]GlcNAc(b1-3)Gal(b1-4)Glc
# Method in brief: as §1
# [25] = target: Fuc(a1-3)[Gal(b1-4)]GlcNAc(b1-3)Gal(b1-4)[Fuc(a1-3)]Glc
# Method in brief: as §1
# [26] = target: Fuc(a1-3)[Gal(b1-4)]GlcNAc(b1-3)[Fuc(a1-2)]Gal(b1-4)Glc
# Method in brief: as §1
# [27] = target: Fuc(a1-3)[Gal(b1-4)]GlcNAc(b1-3)[Fuc(a1-3)[Gal(b1-4)]GlcNAc(b1-6)]Gal(b1-4)Glc
# Method in brief: as §1
# [28] = target: Fuc(a1-3)[Gal3S(b1-4)]Glc
# Method in brief: as §1
# [29] = target: Fuc(a1-3)[Gal3S(b1-4)]GlcNAc
# Method in brief: as §1
# [30] = target: Fuc(a1-3)[Gal3S(b1-4)]GlcNAc(b1-3)Gal(b1-4)Glc
# Method in brief: as §1
# [31] = target: Fuc(a1-3)[Gal3S(b1-4)]GlcNAc6S(b1-3)Gal(b1-4)Glc
# Method in brief: as §1
# [32] = target: Fuc(a1-3)[Gal6S(b1-4)]GlcNAc(b1-3)Gal(b1-4)Glc
# Method in brief: as §1
# [33] = target: Fuc(a1-6)GlcNAc
# Method in brief: as §1
# [34] = target: Gal(a1-4)Gal(b1-4)Glc
# Method in brief: as §1
# [35] = target: Gal(a1-4)Gal(b1-4)GlcNAc
# Method in brief: as §1
# [36] = target: Gal(a1-6)Glc
# Method in brief: as §1
# [37] = target: Gal(b1-3)GalNAc
# Method in brief: as §1
# [38] = target: Gal(b1-3)GalNAc(b1-4)Gal(b1-4)Glc
# Method in brief: as §1
# [39] = target: Gal(b1-3)GalNAc(b1-4)Gal3S(b1-4)Glc
# Method in brief: as §1
# [40] = target: Gal(b1-3)GalNAc(b1-4)[Neu5Ac(a2-3)]Gal(b1-4)Glc
# Method in brief: as §1
# [41] = target: Gal(b1-3)GalNAc(b1-4)[Neu5Gc(a2-3)]Gal(b1-4)Glc
# Method in brief: as §1
# [42] = target: Gal(b1-3)GlcNAc
# Method in brief: as §1
# [43] = target: Gal(b1-3)GlcNAc(b1-3)Gal(b1-4)Glc
# Method in brief: as §1
# [44] = target: Gal(b1-3)GlcNAc(b1-3)Gal(b1-4)GlcNAc(b1-3)Gal(b1-4)Glc
# Method in brief: as §1
# [45] = target: Gal(b1-3)GlcNAc(b1-3)Gal(b1-4)GlcNAc(b1-6)[Gal(b1-3)GlcNAc(b1-3)]Gal(b1-4)Glc
# Method in brief: as §1
binder,measurement,setting,value
"MIC4-A5 (Toxoplasma gondii), Q9XZH7 (protein) SPDFHDEVECVHTGNIGSKAQTIGEVKRASSLSECRARCQAEKECSHYTYNVKSGLCYPKRGKPQFYKYLGDMTGSRTCDTS",glycan array binding signal (z-score),[1],-0.323
same,glycan array binding signal (z-score),[2],-0.323
same,glycan array binding signal (z-score),[3],-0.323
same,glycan array binding signal (z-score),[4],-0.322
same,glycan array binding signal (z-score),[5],-0.322
same,glycan array binding signal (z-score),[6],-0.303
same,glycan array binding signal (z-score),[7],-0.317
same,glycan array binding signal (z-score),[8],-0.318
same,glycan array binding signal (z-score),[9],-0.323
same,glycan array binding signal (z-score),[10],-0.323
same,glycan array binding signal (z-score),[11],-0.322
same,glycan array binding signal (z-score),[12],-0.318
same,glycan array binding signal (z-score),[13],-0.323
same,glycan array binding signal (z-score),[14],-0.319
same,glycan array binding signal (z-score),[15],2.08
same,glycan array binding signal (z-score),[16],-0.323
same,glycan array binding signal (z-score),[17],-0.323
same,glycan array binding signal (z-score),[18],-0.316
same,glycan array binding signal (z-score),[19],-0.289
same,glycan array binding signal (z-score),[20],-0.323
same,glycan array binding signal (z-score),[21],-0.323
same,glycan array binding signal (z-score),[22],2.1
same,glycan array binding signal (z-score),[23],1.07
same,glycan array binding signal (z-score),[24],-0.321
same,glycan array binding signal (z-score),[25],-0.32
same,glycan array binding signal (z-score),[26],-0.323
same,glycan array binding signal (z-score),[27],-0.323
same,glycan array binding signal (z-score),[28],-0.323
same,glycan array binding signal (z-score),[29],-0.323
same,glycan array binding signal (z-score),[30],-0.323
same,glycan array binding signal (z-score),[31],-0.323
same,glycan array binding signal (z-score),[32],-0.323
same,glycan array binding signal (z-score),[33],-0.323
same,glycan array binding signal (z-score),[34],-0.314
same,glycan array binding signal (z-score),[35],-0.279
same,glycan array binding signal (z-score),[36],-0.21
same,glycan array binding signal (z-score),[37],0.274
same,glycan array binding signal (z-score),[38],2.49
same,glycan array binding signal (z-score),[39],5.56
same,glycan array binding signal (z-score),[40],5.3
same,glycan array binding signal (z-score),[41],4.89
same,glycan array binding signal (z-score),[42],1.02
same,glycan array binding signal (z-score),[43],3.01
same,glycan array binding signal (z-score),[44],-0.012
same,glycan array binding signal (z-score),[45],1.72

# From the supplement of paper PMC8728848
